# Source: PMC10726135
# The other results are listed elsewhere or left out. At the low end of the ranking the order means little. Measured with an extract: partners may take part in the binding.
# Target: T1, HNF4alpha8 (COS-7 nuclear extract) (UniProt P41235-5)
# T1 sequence: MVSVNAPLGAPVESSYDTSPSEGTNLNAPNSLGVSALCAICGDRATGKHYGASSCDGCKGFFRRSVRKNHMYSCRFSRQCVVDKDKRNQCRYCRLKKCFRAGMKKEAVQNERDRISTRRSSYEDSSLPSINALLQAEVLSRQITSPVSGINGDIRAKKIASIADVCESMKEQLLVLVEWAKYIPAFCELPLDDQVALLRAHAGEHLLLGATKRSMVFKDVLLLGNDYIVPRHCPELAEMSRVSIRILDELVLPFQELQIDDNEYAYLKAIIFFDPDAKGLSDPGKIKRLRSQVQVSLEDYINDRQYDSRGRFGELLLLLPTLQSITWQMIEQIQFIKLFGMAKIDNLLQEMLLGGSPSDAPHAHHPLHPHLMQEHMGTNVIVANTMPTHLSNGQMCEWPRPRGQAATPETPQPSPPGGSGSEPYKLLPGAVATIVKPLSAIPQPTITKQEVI
# Experiment: protein-binding microarray
# Details: COS-7 nuclear extract on double-stranded Agilent 4x180k PBM; binding buffer, salt, pH and temperature not given; high values mean tight binding; double strand, one strand shown; sequences stand for … in …GCCTAGGGAGATTAGAGTATCGGTCGA
row,Sequence,binding signal (log2 normalized intensity)
1,CCTCAGTGGCTCACAAATGGAGTTTGGTTT,2.53
2,TACATACCCAAGTTCCCTCTCAGGAATGTG,-0.0285
3,TGAACCAATCTTGAGATAAGTACACAAAAG,-1.39
4,GGAATGTGCTTGGACCTGCTCTGTTTTCTT,1.91
5,CTAACAAAGCTCAGGGCAAAGACTCAAATC,-1.28
6,GGTAGATAAGGGAGTTTCAGAGGACTGCCC,0.263
7,CAGCTTTGACGCCACCTGAAGGCAGGTGTG,-1.28
8,ACCTATTCTCTCTGAGGGCTACTATCTGAA,-1.27
9,TCTTAGAGGCACCCATCCCTTTGCAATAAA,1.37
10,TCTCCTAACTATGGTCACGCGGCCAAAATG,-1.43
11,ATGCCAGCTAAGATCAGTAGCTAGGAGACA,-1.34
12,CAAAAATATCTTTGTCTCAGGAACTTTGTT,1.45
13,CATTGCAAATTGGATGTTGAACCTCTGTCC,3.74
14,GGAGGGGAAGCTGGGCAGGCGCCGACTGCC,-1.37
15,AAAACATTGTACCTTCTACCGTACCTAGGA,0.924
16,GGGGGTCAGAAGTCCAACATTAGTATCACT,4.52
17,CAAGTGACTGATAAGGCTAAGTGGAGGATT,-1.28
18,ATCTCGGGGCTGGCATGTCTCTGGTCAGGG,1.14
19,AACACGGGCGAAAAAGACGCGGTCTCAGTT,-1.32
20,GCGAAGCCGGCGGCGGAATGCTTGTCTAGT,-1.21
21,TATCTTACCTCCTTCTCCCCCATGCCCCTG,5.34
22,AGGGAAATGCAAACATTTCTGGAATGTCCA,0.801
23,AGAATGCAGAAACAAATACAGACACACCTA,-1.37
24,AGAGAAGATTCCAGAGGGAGGGAGGGTGGA,-1.24
25,ACCTGGAACTGAAAGAGACCTTTGACATCA,5.23

row,Sequence,binding signal (log2 normalized intensity)
1,CATCTGATAGCTAAACCAGATACGTGGGTC,0.709
2,ATCTATTTTCTATTTCCACTGAGGTCAAGA,2.57
3,TGTGGTTAAGACTCAAAGTTCAGTCGAATT,2.77
4,CGGGCAGCCTGTGGCCAGGCTGCGTTTCAA,-1.29
5,ACAGGTGCTCTTTATCAGCACCAAGAACAA,-0.837
6,TCCTTGACTTCAAAGGCATTTCTGGACTTG,3.31
7,CAGGGAGCCCTTATATCCACATGGGTCCAA,3.03
8,GCTGACCTTTGGTCTAAACCTACTTAGATC,4.73
9,ATCATTGCCTCTGGTATGCAGAAAAGCAAG,-0.965
10,CTTCAAGATGGCATCACTCTTGCCACAGAA,-1.33
11,TCACAAGCATGGGCCTCCTCTTCTTTGGGC,0.594
12,TGAGACACGTGTGCCATGCCAAAGAAGCAA,-1.3
13,ATTGTTTACTGGTGAACATAAATCGCAAAT,-0.386
14,GAGCCTGGACATTTGCCACCAATGCCTCTA,-1.33
15,TACCGGCAGAGGCTGCAGAGGTTTCGCAAG,-1.3
16,AACATAATATTTAGCTTTCAGTGACTGCTC,-0.352
17,TGTCCAGCACACCTTTTTTTCATGCAAATT,0.452
18,TTTCTGCCTGTGATGTCCTTCCCTCAGCAA,-1.46
19,TAGTTGACCTTTGAGAACCTCCCATCAGCT,3.55
20,AACCCAGGGTCACAAGGATCCCATTCATGT,-1.3
21,GACTGACTTAACCCTTGCCTGGCATGGCCT,0.396
22,TGTTACCACCCAGACCAGTAACCTAAGTCA,-1.22
23,CAAAGTCCTGGAAGAAACCCATTTGTTAGT,0.761
24,CTGGGAAGATTAAGGAAGGAAGGTGCTTAT,-1.24
25,ACCTTTGTTCACAGTGACGTTCTGCCCCTT,4.31

row,Sequence,binding signal (log2 normalized intensity)
1,GACCTCAGCCCTCAGGGGCCTTCAGATAAA,-0.943
2,GAAGCTTTCTGAGAAACTTCTTTGTGATGT,1.29
3,GTCCGCCCTTCCCCGCTCTCCCCGCCCCCT,6.27
4,CTGACCTACCTGACCTGGCATACTACAGAA,-1.34
5,TGGGAATTGGGATGGCAGCTTCATTCCAGC,-1.41
6,ATCACTCCTGGTTGGCAAACAAAAAGCTCT,-1.29
7,GGCAGCAAGTATTCAAGAAAGGGGCAAAGT,3.02
8,CTGGAATGTCACAGGGATTACGATCCTGCC,-1.25
9,CCCCAATCAGGTTTCTCAAGTGATCGAAGG,1.98
10,TGAGCAAGATAATGACTAAGGCAGGGAAGG,-1.25
11,CGATGGGCTGGCCCTGAGCCAAGGGAGCAC,-1.24
12,CCTTCACAAATTAGACAAGGTTTGTAACAA,-0.0479
13,ATGTAAATAAGAGCTTTGCATAAGCCAGAC,-1.41
14,ACTTGGGTTTATGGCTTATGCATGTTTATG,2.08
15,AGATAGGTTAAAATTTATCTATTGGGTACA,2
16,CTGTCTTCATCCTGAGAGGGCTCAAGGTCT,2.15
17,CCCCAAATTCCTTTCAAACTGTATTGCTCA,1.24
18,TTGTCTTTTCGGAAGAACTGGTTCTGTGGA,1.39
19,GTCCATCACCTGGCTCTGAAAAACAAAATG,-0.567
20,GTCTTTGCCCCTGGACTTTGAATTTCCCCA,5.11
21,AACTAGGGTTCCAAGACCAAGCAAGCCAGT,-1.39
22,TTACCATATTTACTTATGGTTTGACCCTGC,5.23
23,AGATGTTATTACTTAATGCTTTGAATCCTT,1.16
24,GACCTCATTTGCTCCCAGTGCACACAGACT,0.0643
25,GGAAAGCTGCAGGCATGAGAGGTGCTGCAT,-1.17

row,Sequence,binding signal (log2 normalized intensity)
1,CCTCCTCTGAAGGAACTTCTGGTTCTTTCT,-0.196
2,TCAATGGTTGCACTCTGGTGCCCTCTGAGT,2.85
3,GAGCCAGAGGGGCCAGGAACGTCACACTGA,-1.34
4,GGCTCTCCCGGGGCGGGGGTGACCAGATTA,1.07
5,CCTAAAATTGACCTTTGATCACTCATGGGC,8.68
6,GAGGGCGAGAAGTAGGTGCAAGGGAATGTA,-1.17
7,TATCAGAAGAACTGCACTGTATCTTATCAG,-0.403
8,TACACAGTGCCTGCTTGCAGATAAAACATT,-1.24
9,TCTGACCTCTTTCAAGCCTGAACAAACATG,1.36
10,GGGCAGAGAGGCTGCCATCCCACATTCCAC,-1.18
11,TATGAGCTATGATTGCGCCACTGCATTCCA,-1.33
12,ATAAAGGGTGTGAGAGAGAAGGCAAGATTT,-1.31
13,GTTGGCAAACAAAAAGCTCTGCCTACGCAT,-1.38
14,CCTTCCGGAGGCTCTGCTGAAGAGAAGCCA,-1.35
15,CTTACAGGACAAAAGTAAATATGGTTTACC,-0.746
16,GGACAGCTGGCCTCATGCCTTATCTACATA,-1.29
17,AATCTTCCTTCTTACAGCTGGCTCACTATT,0.936
18,ATTACCAATGAGAAACCTCAAAGGTTAGGG,0.852
19,ATAAGCGAAGATAACCTACTTAAAAAGAAA,-1.15
20,TCCAGAAGAAAGGGGAGATAATGCCAGAAA,-1.13
21,TCAGACTGAGAGAGCAGGGCCCGAGGCCTT,-1.43
22,CAGGGATAGCGCCCACACTGCCCATCCCCA,2.37
23,CCGCCACCCCCCAGAGGGCCATCTAGCTTA,3.09
24,GTCAGTGAACTGTGGTTGACAGGCAACAAT,-0.232
25,CGAATGGTCGCGCCGGGCGCCGCTCTGAGT,-1.35

row,Sequence,binding signal (log2 normalized intensity)
1,TCATGGCTTAAAACGACTGATTCTCAGGCA,-1.24
2,GAGGATGAGGACTTTGGTCTTATTACTAAG,3.37
3,GCTGGAGGTGTTAAAGTGCCATTGAGATGG,0.448
4,TGCAGTACTTTTCAGGAACTGTTCTTTGAC,1.51
5,AGCTCAGTGGAAATTGTCCTGCGGTTGGCT,-0.992
6,TATCTCTCCCCCACCACTGCTTCCTGCCCC,5.48
7,GCCAGAAAAGCAAACCGAGATCAAGGGACA,-1.33
8,ACAAAACATTTGGTGTAAGCACTTGTGGTA,-0.287
9,ATCAAACCTGTTATTTGCGCCTCCCTAGAG,-1.32
10,CTCTGGGAGGGAGGAGCACAGAAGGAGAGA,-1.48
11,AAGCAGAGGGCGAGAAGTAGGTGCAAGGGA,-1.33
12,TCTTACAACATAGTGATTTAGGCTTTTGGG,-0.388
13,GCAGTAGTGCGATGATCATGGCTCACTGCA,-1.25
14,GACTCCAGTGATCTTATCGCCTAGTACTCC,0.579
15,AGAGATTTTCACATGGAATGTCGTGCCCTA,1.62
16,AGGTTTCAGAGGCTCACAGAGAGGCTTCTG,-0.963
17,CTCCCGCAGCATACACTTTCCGTACTTTTC,1.03
18,CTTGTTGGTAACCGGAGCAAAGGTTACTCT,4.95
19,GCCCTGCCACCCCCGTTAATTTCTAACCAA,2.57
20,ATCTCTGATGCCCTTTGGCCTTTCTAATTA,6.21
21,TCCCCTTTCTGTTGGAAGCTGATAAGCCAA,0.289
22,CATTGCATGTGCATTTCACAATAGGGTTCA,2.77
23,CTCTCCCTCCAGGCCCCAGCCACGCCCTCT,3.48
24,CCCAGGTCCAGCCTTTGGGCAGGGGCATCC,1.01
25,AAGGAGATTCCTGTGTCAGCAGAAGGCCCC,1.44

row,Sequence,binding signal (log2 normalized intensity)
1,CAGTGGTAACCACAGTACTGTCTTTTTGCC,0.214
2,AAGCACATACTTCTTCCTGTTTGACCTTCG,5.61
3,GAGTTCTTCAAGTCAGTCAAAATGAATAGT,0.159
4,GTACTATGACCCAAACTTCACAAAAATGAG,1.74
5,TTCCCAAGAAGAGCCCAGACAAGCATTCTG,-1.12
6,TGAGACCTGTGATGGTCACTATCTGGGCCA,0.312
7,GTCAAGTAGAGACCTGTCTTCCTGGTGACC,2.25
8,CCTATCTGGTGCAGTCCAAGAGGCCCAGGT,-1.37
9,TGTGTGTGTGTGTGTGTCTGTGTGTGTGTG,3.31
10,CAAACAAATGCCATAGTCCAAAGTGGCAGT,1.79
11,CCAGCAGATGAGCCTGTTGGGAGCCAGGCA,-1.33
12,ACCTTTGCCCTTGACTTTTTGTGGGGGCAG,3.39
13,CAGGCCGGCTTGCGTCCCCAGGTGAACTCA,1.98
14,TCACAATTAAGCCAAACTTGGGTTTATGGC,-0.0156
15,GACCCAGGAGGAGAAGGGTGGGAATTGGGA,-1.31
16,TCTGCAAGGCAACTGACCTTTGGATCTGGG,8.01
17,AAGATGGGCATTAGGTGGACAGGGGTGTGT,1.4
18,TTGGCAAGTTAATGTGGCCTAATGTTTGTG,1.93
19,TATCTTGTCTCTTCTTGTACCTCTGGTGAT,2.08
20,AAGGTAGGCAGAGAGGCTGCTCAGTTTAAG,-1.37
